Laboratory results reported in PubChem BioAssay AID1745853 (National Center for Advancing Translational Sciences (NCATS), 2022).
This is one part of the list. The main result of the screen is listed elsewhere. These columns were measured beside it and carry no call.

Key:
Experiment in all cases: Primary Screen for Target Class Profiling of Small Molecule Inhibitors of Methyltransferases
[1] = biological target: Glycine N-methyltransferase (Homo sapiens) (UniProt Q14749); conditions: purified enzyme, MTase-Glo SAH luminescence; measured here: GNMT inhibition; at 40 µM; stronger effect = lower value
Description: (§1) PI: Matthew D. Hall Ph.D. and Quinlin M. Hanson Ph.D.
(§2) National Center for Advancing Translational Sciences (NCATS)
(§3) National Institute of Health (NIH), Rockville, MD
(§4) Target class profiling (TCP) is a chemical biology approach amenable to investigating understudied biological targets. TCP is achieved by developing a generalizable assay platform and applying it to screen a curated set of compound libraries against representative members of a target class. Small molecule methyltransferases (SMMTase) are a subclass of methyltransferase that act on metabolites to modulate signaling pathways, metabolize xenobiotics, or balance the available methyl pool. We screened four curated libraries totaling 27,574 unique compounds against the SMMTases nicotinamide N-methyltransferase (NNMT), phenylethanolamine N-methyltransferase (PNMT), histamine N-methyltransferase (HNMT), glycine N-methyltransferase (GNMT), catechol O-methyltransferase (COMT), and guanidinoacetate N-methyltransferase (GAMT). The data generated by this TCP can be leveraged for informed tool molecule development. For example, in the associated publication we identified a chemotype of HNMT-selective inhibitors. Additionally, we identified a putative SMMTase-selective inhibitor with potential as a tool molecule for studying broader methyltransferase biology.
(§5) High-through put screening assays were developed at the National Center for Advancing Translational Science (NCATS) for the enzymes NNMT, PNMT, HNMT, GNMT, COMT, and GAMT. Enzymatic activity was measured as a function of SAM cofactor conversion using the MTase Glo kit (Promega) for all enzymes. All assays were performed in 1536-well format with substrates and SAM concentrations at KM values. Enzyme concentration and assay timing were optimized for 10-20% SAM conversion. Initial screening of 27,574 compounds was done as single-point assays using the highest compound concentration (40 uM). […] These compounds were replated in 11-point dose response and assayed against NNMT, PNMT, HNMT, GNMT, COMT, GAMT, and a counter-assay. The IC50 and efficacy (maximal response) values were determined for each dose-response curve. These values are also accounted for in the area under the curve (AUC) values.
(§6) PROTOCOL TABLE (as described by Inglese J, Shamu CE and Guy RK. 2007)
(§7) SEQUENCE No. (e.g., 1, 2, 3, etc.); […] (e.g., Cells, Incubation, Reagent, etc.); VALUE; DESCRIPTION.
(§8) 1; Reagent; 2 uL; SMMTase Enzyme (2x) in reaction buffer, columns 1- 48.
(§9) 2; Reagent; 1 uL; SAM (4x) in reaction buffer, columns 1-48.
(§10) 3; Controls; 23 nL; DMSO in column 4; sinefungin in DMSO (0 uM - 40 uM) in 7-point 1:2 dilution series (n = 2) in column 2.
(§11) 4; Compounds; 23 nL; Columns 5-48.
(§12) 5; Reagent; 1 uL; Substrate (4x) in reaction buffer, columns 2-48.
(§13) 6; Time; 20-30 min; Incubation.
(§14) 7; Reagent; 1 uL; MTase-Glo reagent (5X), columns 1-48.
(§15) 8; Time; 30 min; Incubation.
(§16) 9; Reagent; 5 uL; MTase-Glo Detection reagent, columns 1-48.
(§17) 10; Time; 30 min; Incubation, luminescence evolution.
(§18) 11; Detection; Luminescence; ViewLux uHTS Microplate Imager (PerkinElmer).
(§19) NOTES (numbers refer to Sequence numbers above)
(§20) 1, 2, 5. White Medium Binding Greiner 1536-well plates (Cat #789175-F, Greiner Bio-One, Monroe, NC); Reaction buffer: 50 mM Tris, pH 8.0, 3 mM MgCl2, 1 mM EDTA, 50 mM NaCl, 1 mM DTT, and 0.1 mg/mL BSA. Evaporation was prevented by covering assay plates with metal lids containing holes to allow gas diffusion.
(§21) 1. Six SMMTase were profiled: HNMT, GNMT, PNMT, COMT, NNMT, GAMT
(§22) 5. The corresponding substrate was used for each enzyme: HNMT - 5.3 uM Histamine; GNMT - >500 uM Glycine; PNMT - 16.2 uM Norephinephrine; COMT - 13.7 uM Norephinephrine; NNMT - 3.8 uM Nicotinamide; GAMT - 2.5 uM Guanidinoacetate.6, 8, 10. Room temperature
(§23) 6. Final reaction conditions: 10 nM COMT, 5 uM SAM, 15 uM norepinephrine, 50 mM Tris, pH 8.0, 3 mM MgCl2, 1 mM EDTA, 50 mM NaCl, 1 mM DTT, and 0.1 mg/mL BSA; refer to tables 2 and S1 for specific timing.
8. […]

[2] = biological target: Guanidinoacetate N-methyltransferase (Homo sapiens) (UniProt Q14353); conditions: purified enzyme, MTase-Glo SAH luminescence; measured here: GAMT inhibition; at 40 µM; stronger effect = lower value
Description: as §1, §2, §3, §4, §5, §6, §7, §8, §9, §10, §11, §12, §13, §14, §15, §16, §17, §18, §19, §20, §21, §22, §23
8. […]

[3] = biological target: Histamine N-methyltransferase (Homo sapiens) (UniProt P50135); conditions: purified enzyme, MTase-Glo SAH luminescence; measured here: HNMT inhibition; at 40 µM; stronger effect = lower value
Description: as §1, §2, §3, §4, §5, §6, §7, §8, §9, §10, §11, §12, §13, §14, §15, §16, §17, §18, §19, §20, §21, §22, §23
8. […]

[4] = biological target: Nicotinamide N-methyltransferase (Homo sapiens) (UniProt P40261); conditions: purified enzyme, MTase-Glo SAH luminescence; measured here: NNMT inhibition; at 40 µM; stronger effect = lower value
Description: as §1, §2, §3, §4, §5, §6, §7, §8, §9, §10, §11, §12, §13, §14, §15, §16, §17, §18, §19, §20, §21, §22, §23
8. […]

[5] = biological target: Phenylethanolamine N-methyltransferase (Homo sapiens) (UniProt P11086); conditions: purified enzyme, MTase-Glo SAH luminescence; measured here: PNMT inhibition; at 40 µM; stronger effect = lower value
Description: as §1, §2, §3, §4, §5, §6, §7, §8, §9, §10, §11, §12, §13, §14, §15, §16, §17, §18, §19, §20, §21, §22, §23
8. […]
% is set by controls: 0 for no effect and ±100 for the full control effect.

Structure (SMILES)	activity change, negative = inhibition [1]	activity change, negative = inhibition [2]	activity change, negative = inhibition [3]	activity change, negative = inhibition [4]	activity change, negative = inhibition [5]
CCOC(=O)c1c(NC(=O)N2Cc3ccccc3-n3cccc3C2CC)sc2c1CCCC2 (configuration not stated)	2.28%	-1.32%	-2.54%	-5.36%	-4.2%
CCOc1ccc(C2c3cccn3-c3ccccc3CN2C(=O)NCc2cccc(OC)c2)cc1 (configuration not stated)	6.09%	0.002%	4.92%	2.15%	7.19%
CC1=CC(=O)[C@@H](O)[C@@]2(C)C1C[C@H]1OC(=O)[C@H](O)[C@@]3(O)[C@@H](C)[C@@H](O)[C@H](O)C2[C@@]13C (some centres not stated)	-0.804%	-2.11%	-5.96%	-15.5%	-0.795%
CN1CN(c2ccccc2)C2(CCN(CCCC(=O)c3ccc(F)cc3)CC2)C1=O	-6.57%	-3.24%	-8.39%	-15.8%	-1.25%
CNc1ccc2oc(C[C@H]3O[C@@]4(CC[C@H]3C)O[C@H](C(C)C(=O)c3ccc[nH]3)[C@H](C)C[C@H]4C)nc2c1C(=O)O (some centres not stated)	0.112%	–	6.68%	–	–
CCC1c2cccn2-c2ccccc2CN1C(=O)Nc1cccc2c1CCCC2 (configuration not stated)	-1.68%	0%	-0.697%	3.91%	-2.5%
NC(CCP(=O)(O)O)C(=O)O (configuration not stated)	-5.34%	3.46%	-1.62%	-5.72%	4.97%
O=C(Nc1ccc(Br)cc1)N1Cc2ccccc2-n2cccc2C1c1ccccc1 (configuration not stated)	-1.43%	2.5%	-1.63%	1.92%	3.68%
CCCCCn1cc(C(=O)Oc2cccc3cccnc23)c2ccccc21	1.95%	-12.8%	4.46%	-26.2%	-13.1%
CC(C)CCNC(=O)N1Cc2ccccc2-n2cccc2C1C (configuration not stated)	11.9%	0.051%	5.29%	-1.44%	8.25%
COc1ccc(C2c3cccn3-c3ccccc3CN2C(=O)Nc2ccc(C)c(F)c2)cc1OC (configuration not stated)	7.15%	0.96%	4%	3.99%	5.88%
CCOC(=O)CNC(=O)N1Cc2ccccc2-n2cccc2C1c1cccc(Cl)c1 (configuration not stated)	15.2%	4.59%	7.72%	-1.97%	8.13%
C[N+]1(C)CCc2cc3c(cc2[C@H]1[C@@H]1OC(=O)c2c1ccc1c2OCO1)OCO3	2.17%	13.9%	11.1%	-3.68%	4.38%
CS(=O)(=O)NC[C@H]1C[C@@H]2CCN1C[C@@H]2CN1CCc2ccccc2C1	-5.22%	-6.42%	-11.8%	-8.65%	-7.76%
COc1cc(OC)c(NC(=O)N2Cc3ccccc3-n3cccc3C2c2cccs2)cc1Cl (configuration not stated)	15.1%	6.37%	9.04%	5.89%	9.14%
COC[C@]12CN(C)C3C4[C@H](OC)[C@H]1C3(C(OC)C[C@H]2O)[C@H]1C[C@@]2(O)[C@H](OC(=O)c3ccccc3)[C@@H]1[C@]4(O)[C@@H](O)[C@@H]2OC (some centres not stated)	0.127%	-7.46%	5.2%	-11.5%	2.16%
COc1ccc2c(c1O)-c1cccc3c1[C@@H](C2)N(C)CC3	-7.28%	12.4%	5.21%	-5.38%	3.42%
C[C@H]1O[C@@H](O[C@H]2[C@@H](O)C[C@H](O[C@H]3[C@@H](O)C[C@H](O[C@H]4CC[C@@]5(C)[C@H](CC[C@@H]6[C@@H]5CC[C@]5(C)[C@@H](C7=CC(=O)OC7)CC[C@]65O)C4)O[C@@H]3C)O[C@@H]2C)C[C@H](O)[C@@H]1O	-0.431%	-7.55%	-0.083%	-16.2%	-1.52%
